To fix the notation:
B1: chr1:226361101:226361261:-|3pUTR|ENSG00000143799|msi1|FALSE|unique (ssRNA)
RNA: GGGAGUUCUACAGUCCGACGAUCUUUCUUGCCAGGUAGAUAAAACUGACAUAGAGAAAAGGCUGGAGAGAGAUUCUGUUGCAUAGACUAGUCCUAUGGAAAAAACCAAGCUUCGUUAGAAUGUCUGCCUUACUGGUUUCCCCACAACAGAGGAUUGAGCAUCA
B2: chrX:103499925:103500756:-|CDS|ENSG00000172476|control|control|control (ssRNA)
RNA: GGGAGUUCUACAGUCCGACGAUCUGAGGUCAGCCCUCUGUGCAAUUUCAACAUCAUAGAGUCUUUCACGGAGCUGGCCAGGAUAGUGCUGCUGCGGCACAGGAUGAAUUGGCUCGGGAGGCCGAGCAAGGUACUGAGCUUGCACAACAGAGGAUUGAGCAUCA
B3: chr1:116393555:116393656:+|CDS|ENSG00000163399|msi1|total|mutant (ssRNA)
RNA: GGGAGUUCUACAGUCCGACGAUCCCCCAACACAUCGGAGCCCCAACACCUGUUGGUGAUGAAGGGCGCCCCAGAAAGGAUCCCCGACCGUUGCAGCUCUAUCCUCCUCCACGGCAAGGAGCAGCCCCUGGAUGAGGAGCUGAACAACAGAGGAUUGAGCAUCA
B4: chr6:134169319:134169461:-|3pUTR|ENSG00000118515|unk|FALSE|unique (ssRNA)
RNA: GGGAGUUCUACAGUCCGACGAUCUGCAUUCCUGAUAAUUGUAUGUAUUGUAUAAAGAACGUCUGUACAUUGGGUUAUAACACUAGUAUAUUUAAACUUACAGGCUUAUUUGUAAUGUAAACCACCAUUUUAAUGUACUGUAAUCAACAGAGGAUUGAGCAUCA
B5: chr22:43879677:43880794:-|three_prime_utr|ENSG00000100341|control|control|control (ssRNA)
RNA: GGGAGUUCUACAGUCCGACGAUCGAGAAAGGAGGACAGCCACAGAGACACAUGUCUUACUUUCAGAAUUUCCACGGGGGGACUAGGAGGGCAGCAUUGCUGGGGAGAGGGGCUCCUGUUCUGCCGUGGAGCUGCCCACGGAGCCAACAGAGGAUUGAGCAUCA
B6: chr14:75134463:75134564:-|3pUTR|ENSG00000170348|msi1|total|mutant (ssRNA)
RNA: GGGAGUUCUACAGUCCGACGAUCCUGUUUGGACUAUGUUUUCUUUUCUUCUCCCACUUGCUCAGCAGCUUGGGCUUCCAUUCCCGUUCUUUUACCAAGAUUUUUGUGUGACCAUGUUGACUUCAUUUGGAUUGCCCUCUUUCACAACAGAGGAUUGAGCAUCA
B7: ENSG00000249115:stop:overlap|stop_codon|ENSG00000249115|stop_codon|NA|stop_codon (ssRNA)
RNA: GGGAGUUCUACAGUCCGACGAUCACAGUCCACAGGUGAGAAGCAUAUGCUACAAGAUUCUCUUUCAUCCGAAAAAUGACUUGUAGAUCUUCUGCUCUAAGCCCAACCAGGUGCUGGGUGAUGCUGGGGACAAUGGGUCACAAGCAACAGAGGAUUGAGCAUCA
B8: chr1:65389253:65389354:+|CDS|ENSG00000116675|unk|FALSE|unique (ssRNA)
RNA: GGGAGUUCUACAGUCCGACGAUCGUUAGAUGCAUGUGAUGUACCAGAAAAAUAUCCUCAGCUAUUUCAGGUGACACUGGAUGUAGAACUACAGCCCCAUGACAAAGUAAUAGACUUAACUCCACCAUGGGAACAUUACUGCACCAACAGAGGAUUGAGCAUCA
B9: chr21:25881051:25881209:-|3pUTR|ENSG00000142192|msi1_unk|total|mutant (ssRNA)
RNA: GGGAGUUCUACAGUCCGACGAUCUUUUUUUUCCAUGACUGCAUUUUACUGUACAGAUUGCUGCUUCUGCUAUAUUUGUGAUACCGGAAUUAAGAGGAUACACACGUUUGUUUCUUCGUGCCUGUUUUAUGUGCACACAUCCGGCAACAGAGGAUUGAGCAUCA
B10: chr4:119293926:119294030:+|3pUTR|ENSG00000145390|unk|total|mutant (ssRNA)
RNA: GGGAGUUCUACAGUCCGACGAUCGAUGGAAUUUAAUUUUGCUCCCCGAAUUUUUGUCUUCAGAAUAUCCCGUUAAGAUAAAUCCGGCCUUUGACUAUUACCGGUAUUCAUAAAUGCUACUUCCGCCAUGUAAGUUAAAAAGUUCAACAGAGGAUUGAGCAUCA
B11: ENSG00000104047:stop:overlap|stop_codon|ENSG00000104047|stop_codon|NA|stop_codon (ssRNA)
RNA: GGGAGUUCUACAGUCCGACGAUCACCAGUUGAUAAAGAAUGCCAAAUGCUCUGGAGAUAAGGAAACAGGAAAACUUACACAUUAGUUUUUAACAAGCCACUUAUGUCUUUUUAUUUUGCUAACAUUAAUAAACUUAUAUUUGUCAACAGAGGAUUGAGCAUCA
B12: ENSG00000070961:be:win_1701|CDS|ENSG00000070961|bound_else_gene|NA|bound_elsewhere_windowed (ssRNA)
RNA: GGGAGUUCUACAGUCCGACGAUCACCAGAAGAAGCACUGUACAAAGUCUACACCUUCAAUUCUGUUAGGAAGUCCAUGAGUACUGUCCUGAAAAAUUCAGAUGGAAGUUAUCGAAUAUUCAGCAAGGGUGCAUCUGAGAUAAUCAACAGAGGAUUGAGCAUCA
B13: chr2:165880514:165880799:-|CDS|ENSG00000123607|control|control|control (ssRNA)
RNA: GGGAGUUCUACAGUCCGACGAUCGAUGGCAUGGAAAUAUAGCAAUCGGACAAAUCCGGCAGUAGGUGAGUUUGGCAAUCACCUAGAUUUUUCACAGAAAAAUUAUGUUGUAUUUAUUAAUUUUCAUUUAAAUGCAUUUGAUUUCAACAGAGGAUUGAGCAUCA
B14: chr4:155836688:155836857:-|CDS|ENSG00000256394|control|control|control (ssRNA)
RNA: GGGAGUUCUACAGUCCGACGAUCUAAGGAUUUAUGUACAGUAGGAACACAUAACUCUAGCUGCCCCGUUUCUUGUGAAGAAAUAGAAUACCCGGCCACUAUUUCUUAUUCCUCUUUUCCAAGUCAAAAAGCUUUGAAAUAUCUCAACAGAGGAUUGAGCAUCA
B15: chr5:147393259:147393361:-|3pUTR|ENSG00000113657|msi1_unk|total|mutant (ssRNA)
RNA: GGGAGUUCUACAGUCCGACGAUCAGACCCAACCAUUUCUUCCACCUGCUUGAUUGUGCCAGUGUUUGCUCAGGCCUCUUUCUCCGUGUUGCUUUCAAAUCCUUCUCUUUCCUGGGUUGGGAAGGCCAGGCAGGGACAGAGCAACAACAGAGGAUUGAGCAUCA
B16: chr2:53865134:53865235:-|3pUTR|ENSG00000068878|unk|FALSE|unique (ssRNA)
RNA: GGGAGUUCUACAGUCCGACGAUCGUCCUGUCAUUUCAUUCAUCUCAAAUUAUUUUGAAUUCUUCCCAAAUGGCUGCUGGAUUUAGGUGGUAAUAGGGGCUGUGGGCCAUAAAUCUGAAGCCUUGAGAACCUUGGGUCUGGAGACAACAGAGGAUUGAGCAUCA
B17: chr1:46316673:46316776:+|3pUTR|ENSG00000173660|unk|FALSE|unique (ssRNA)
RNA: GGGAGUUCUACAGUCCGACGAUCUGUUUCUUAUUUGUGUAACUGUAAGUUCACAUGAACCUCAUGGGUUUGGCUUAGGCUGGUAGCUUCUAUGUAAUUCGCAAUGAUUCCAUCUAAAUAAAAGUUCUAUGAUCUGCAAACCUGCAACAGAGGAUUGAGCAUCA
B18: chr10:78022286:78022401:-|CDS|ENSG00000148606|unk|FALSE|unique (ssRNA)
RNA: GGGAGUUCUACAGUCCGACGAUCAACAUAGUAUCUCCAUUUCUGCCUUUCUUCGUUUCCAUAGGAAAACUUGAAUCCCUUAGUAGUUCUGAAUUUAUUUAAACGAAUCCCAGCUGAAGAUGUUCCUCUACUUCUGAUGAACCCCAACAGAGGAUUGAGCAUCA
B19: chr17:81509976:81510077:-|3pUTR|ENSG00000184009|msi1|FALSE|unique (ssRNA)
RNA: GGGAGUUCUACAGUCCGACGAUCUCUCGAUUCUUUGAAGAGAUGACAACAAAUUUUGGUUUUCUACUGUUAUGUGAGAACAUUAGGCCCCAGCAACACGUCAUUGUGUAAGGAAAAAUAAAAGUGCUGCCGUAACCAAUGAAUCAACAGAGGAUUGAGCAUCA
B20: chr7:20412513:20412614:+|3pUTR|ENSG00000105855|msi1|total|mutant (ssRNA)
RNA: GGGAGUUCUACAGUCCGACGAUCUCCUUAAAAAUCCAGAGUUUAUAUUUUUUUUAUACCCUCACUUGUUUGCACUAACUUUACCGUGGACCAAGGCUGUUACCACCGGAAGGGACAAACUUCCUUGCCGGCAACUCAGUGUUACAACAGAGGAUUGAGCAUCA
B21: chr7:108502517:108502634:-|CDS|ENSG00000135241|unk|FALSE|unique (ssRNA)
RNA: GGGAGUUCUACAGUCCGACGAUCAUUAUUCCAUAUUUAUUACGACUGAGACAAAUUAAGGAUGAAACUCUUCAGGCUGCAGUUAGAGAAAUUUUGGCCCUAAUUGGCUAUGUGGAUCCAGUGAAAGGGAGAGGAAUCCGAAUUCAACAGAGGAUUGAGCAUCA
B22: chr11:111726697:111726798:+|3pUTR|ENSG00000170145|unk|total|mutant (ssRNA)
RNA: GGGAGUUCUACAGUCCGACGAUCGGAAGCUUCCAAGCAGUUUUCUCUUCAUCACUACUAACAAACAAAACACUAAGAAGGCUCCGUAUCGCUCUUUUUCUGCGGGGCUACUCUGAAGUACUGACUUGCUUUCCAGUCUGAUUCCAACAGAGGAUUGAGCAUCA

The other results are listed elsewhere or left out.

The target of this experiment is MSI1 full-length (mouse, UniProt Q61474 1-362). Briefly: nsRBNS (natural sequence RNA bind-n-seq); RBNS binding buffer (assumed for nsRBNS): 25 mM Tris pH 7.5, 150 mM KCl, 3 mM MgCl2, 0.01% Triton X-100, 500 ug/ml BSA, 20 U/ml SUPERase-In, 4 C; UNK is unkempt and MSI1 is Musashi-1; names of the RNAs are library labels; protein concentration not given here; high values mean tight binding.
Sequence of UniProt Q61474 (Q61474 whole entry): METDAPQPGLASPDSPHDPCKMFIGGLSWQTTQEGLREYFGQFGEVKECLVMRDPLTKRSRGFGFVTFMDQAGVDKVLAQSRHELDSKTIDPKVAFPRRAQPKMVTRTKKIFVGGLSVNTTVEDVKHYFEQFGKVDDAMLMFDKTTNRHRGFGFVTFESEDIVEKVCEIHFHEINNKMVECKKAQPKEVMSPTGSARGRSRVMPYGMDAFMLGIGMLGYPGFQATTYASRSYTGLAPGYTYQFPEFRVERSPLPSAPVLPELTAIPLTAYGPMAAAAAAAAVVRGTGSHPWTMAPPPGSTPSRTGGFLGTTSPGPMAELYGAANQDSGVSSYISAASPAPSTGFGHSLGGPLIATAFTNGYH
In turn, B1 came in with a binding signal of 13.1 enrichment R. The same measure for B2: 0.432 enrichment R. Then B3, with 0.318 enrichment R. In turn, B4 came in with a binding signal of 6.9 enrichment R.

The molecule B5 registered a binding signal of 0.603 enrichment R. Then B6, with 0.405 enrichment R. Then B7, with 0.543 enrichment R. Take B8: the binding signal was determined as 1.65 enrichment R. For B9, the binding signal was determined as 0.295 enrichment R. B10 yielded a binding signal of 0.611 enrichment R. The same measure for B11: 0.583 enrichment R; for B12: 0.208 enrichment R; for B13: 0.379 enrichment R.

Molecule B14 registered a binding signal of 0.632 enrichment R. Then B15, with 0.43 enrichment R; and B16, with 0.431 enrichment R.

Consider B17, for which the binding signal amounted to 0.559 enrichment R.

Regarding B18, the binding signal was 6.67 enrichment R. B19 showed a binding signal of 0.24 enrichment R. Turning to B20, the binding signal is 0.476 enrichment R. Then B21, with 0.803 enrichment R; and B22, with 0.495 enrichment R.
